Data: PubChem BioAssay AID624296 (National Center for Advancing Translational Sciences (NCATS), 2012)
About 9,900 (2.8%) of roughly 350,000 compounds were called active. The shares of active, inactive and inconclusive entries below differ from those in the screen. Calls follow the shape of the dose curve; as a rule, active = well fitted activation curve with a large enough effect; inconclusive = small, poorly fitted or top-dose-only effect; inactive = no such curve, though single readings can be large or run the other way. No potency is given beside an inconclusive call; the fits are too rough.

Experiment: A quantitative high throughput screen for small molecules that induce DNA re-replication in MCF 10a normal breast cells. Also: nearly all actives have a fitted effect of over 50% in size. As to activity, positive = re-replication: % of control where 0% means no effect.
Conditions: MCF 10A DNA re-replication, Hoechst nuclear intensity, 48 h; activity, positive = re-replication: at 46.1 µM (top of the series)
Potency is read from the fitted curve at half-maximal effect; tags tell the direction and shape of the fitted curve.

Compound	Potency	activity, positive = re-replication
CCCCC(=O)Nc1ccc(C(=O)Nc2cc(C(F)(F)F)ccc2Cl)cc1	inconclusive [activator, single point]	–
CCN(c1ccccc1)S(=O)(=O)c1ccc(OC)c(NC(=O)CN(C)C)c1	inconclusive [activator, partial curve]	–
Cn1cccc1C1CCCN1CC(=O)Nc1c(Cl)cc(Cl)cc1Cl (configuration not stated)	inconclusive [activator, single point]	–
COCCNC(=O)c1c[nH]c2ccc(S(=O)(=O)N3CCc4ccccc43)cc2c1=O	–	inactive: -7.24%
Cc1cc(C)nc(N/C(=N\S(=O)(=O)Cc2ccccc2)Nc2ccccc2Br)n1	active: 4.11 µM	–
COc1ccc(CNC(=O)CCCCCNC(=O)N2CCn3c2nc2ccccc23)cc1	–	inactive: -2.74%
CC(SCC(=O)Nc1ccccc1)c1nc2ccccc2c(=O)[nH]1 (configuration not stated)	inconclusive [activator, single point]	–
CCOC(=O)c1cc2oc(C(c3nnnn3C3CCCCC3)N3CCOCC3)cc2[nH]1 (configuration not stated)	inconclusive [activator, single point]	–
Cc1cccc(-n2c(SCC(=O)N3CC(=O)Nc4ccccc43)nc3ccccc3c2=O)c1C	inconclusive [activator, single point]	–
O=C(O)C1CCCCC1C(=O)Nc1ccc(S(=O)(=O)N2CCOCC2)cc1 (configuration not stated)	–	inactive: 0.567%
N#Cc1c(-c2cccs2)nc(SCC(=O)c2ccc(Br)cc2)[nH]c1=O	inconclusive [activator, single point]	–
CCC(C(=O)n1cccc1C#N)c1ccccc1C (configuration not stated)	–	inactive: -0.872%
Cc1cc(-c2ccc(S(=O)(=O)N(C)c3ccc(C)c(C)c3)s2)on1	active: 10.3 µM	–
CCCCCOc1ccc(CSC2=NCCN2)cc1[N+](=O)[O-]	active: 20.6 µM	–
CCN1C(=O)CC(C(C)C)N(C2CCCC2)c2nc(Nc3ccc(C(=O)NC4CCN(C)CC4)cc3OC)ncc21 (configuration not stated)	inconclusive [activator, single point]	–
CC(=O)NC1=NN(C(C)=O)C(C)(c2ccco2)S1 (configuration not stated)	inconclusive [activator, single point]	–
C[C@H](CO)N1C[C@H](C)[C@@H](CN(C)C(=O)Nc2ccccc2)Oc2c(NC(=O)Nc3ccc(C(F)(F)F)cc3)cccc2C1=O	inconclusive [activator, single point]	–
Cc1ccc(NC(=S)NC2CCSc3ccccc32)cc1 (configuration not stated)	inconclusive [activator, single point]	–
C=CCn1c(CCC)nc2ccccc21	inconclusive [activator, single point]	–
COc1ccc(C(=O)NCc2nnc(SCC(=O)N3CCc4ccccc43)n2Cc2ccccc2)cc1	–	inactive: 9.18%
CC(=O)NC(c1ccccc1)c1cccnc1 (configuration not stated)	inconclusive [activator, full curve, poor fit]	–
Cc1ccc(-c2ccc(=O)n(Cc3cc(C)ccc3C)n2)cc1	inconclusive [activator, single point]	–
c1cnc(SCCOc2ccc3c(c2)CCC3)nc1	–	inactive: -50.8% [at 0.0737 µM]

Compound	Potency	activity, positive = re-replication
COc1cc(-c2cc(C(=O)Nc3ccncc3)c3ccccc3n2)cc(OC)c1OC	–	inactive: 23.5%
COc1ccc(OC)c(NC(=O)c2cc(-c3cc(Cl)ccc3O)n[nH]2)c1	active: 14.6 µM	–
O=C(COc1ccc2c(c1)OCO2)Nc1ccc(Cl)cn1	inconclusive [activator, partial curve]	–
O=c1c2ccccc2nnn1COc1cccc2ccccc12	inconclusive [activator, partial curve, poor fit]	–
Cc1ccc(C)n1-c1ccc(C(=O)/C=C/N(C)C)cc1	active: 23.1 µM	–
COC(=O)[C@@]1(Cc2ccccc2)[C@H]2C(=O)N(C)C(=O)[C@H]2[C@H]2CN=C(SCc3ccc(C)cc3)N21	inconclusive [activator, single point]	–
CCOC(=O)C1=CN(Cc2cccc(Br)c2)S(=O)(=O)NC1C (configuration not stated)	inconclusive [activator, single point]	–
CC(C)(C)OC(=O)NCCCC[C@H](NC(=O)c1nc[nH]c1C(=O)NC(c1ccccc1)c1ccccc1)C(=O)OC(C)(C)C	–	inactive: 26.1%
Cc1ccccc1C(=O)O[C@H]1[C@H](Cc2ccccc2)NS(=O)(=O)[C@H]2CC3C=C[C@]12O3	inconclusive [activator, partial curve, poor fit]	–
CCCc1cc(-c2nc(-c3ccc(Cl)cc3)cs2)ccn1	inconclusive [activator, partial curve, poor fit]	–
CC(NC(=O)c1ccco1)c1nc(-c2ccc(C(C)(C)C)cc2)no1 (configuration not stated)	–	inactive: 5.32%
CCOC(=O)c1cnc(SC)nc1Oc1cccc(NS(=O)(=O)c2ccc(Cl)cc2)c1	–	inactive: 16%
CCOC(=O)c1nc(C)sc1-c1ccnn1S(=O)(=O)c1ccc(C)cc1	inconclusive [activator, full curve]	–
COc1ccc(-c2nnc(-c3cccnc3)o2)cc1OC	inconclusive [activator, partial curve, poor fit]	–
O=C(Nc1cccc(Cl)c1)NC1(C(=O)NCc2cccs2)CCCCC1	inconclusive [activator, full curve]	–
COc1ccc(-c2n[nH]c(=S)n2CC(C)C)cc1	–	inactive: 2.09%
COc1ccc(C(=O)N/N=C/c2cccc3cccnc23)cc1	inconclusive [activator, full curve, poor fit]	–
COc1ccc(OCCC(=O)OCC(=O)Nc2cccc(S(=O)(=O)N3CCCCC3)c2)cc1	inconclusive [activator, single point]	–
Cc1[nH]c2ccccc2c1C(c1ccccn1)N1CCC(C(N)=O)CC1 (configuration not stated)	inconclusive [activator, single point]	–
Cc1nn(-c2ccccc2)c(Cl)c1CN(C(=O)CCl)c1ccc(Cl)cc1	inconclusive [activator, partial curve]	–
COc1ccc(CC(=O)Nc2cc(S(=O)(=O)Nc3ccc(OC)cc3)ccc2OC)cc1	–	inactive: 15%
CCc1cc(C(=O)Nc2cc(S(=O)(=O)N(CC)CC)ccc2N2CCOCC2)sc1C	inconclusive [activator, single point]	–
NS(=O)(=O)c1ccc(-c2ccc(/C=C3\C(=O)Nc4cc(Cl)ccc43)o2)cc1	inconclusive [activator, single point]	–

Compound	Potency	activity, positive = re-replication
CCOc1cc(N2CCOCC2)c(OCC)cc1NC(=O)CN1C(=O)NC(C)(C2CC2)C1=O (configuration not stated)	inconclusive [activator, partial curve, poor fit]	–
O=C(O)Cc1ccc(NC(=O)c2ccc3c(c2)C(=O)N(Cc2ccco2)C3=O)cc1	–	inactive: 1.32%
COCCNC(=O)/C(C#N)=C/c1ccccc1Br	inconclusive [activator, single point]	–
CCOC(=O)c1sc(NC(=O)CCN2CCN(C)CC2)c(C(=O)OCC)c1C	–	inactive: 22.9%
Cc1ccc(C2=NN3C(C2)c2ccccc2OC32C(=O)Nc3ccccc32)cc1 (configuration not stated)	inconclusive [activator, single point]	–
COc1ccc(S(N)(=O)=O)cc1C(=O)NCCCN1CCN(c2ccccc2OC)CC1	–	inactive: 4.97%
Cc1ccc(/C=N/NC(=O)c2nnn(-c3nonc3N)c2-c2cccs2)cc1	inconclusive [activator, full curve, poor fit]	–
CCCCc1ccc(/C=C2/C(=O)ON=C2c2ccccc2)s1	inconclusive [activator, single point]	–
CCN1C(=O)C(=O)N(CC(=O)N(C)CC(=O)Nc2ccccc2Cl)C1=O	–	inactive: -0.194%
Cc1cccc(OCC(=O)Nc2ccc(N3CCN(C(=O)c4ccccc4)CC3)cc2)c1	inconclusive [activator, partial curve, poor fit]	–
FC(F)(F)c1cccc(NC(=S)Nc2ccc(Cl)c(Cl)c2)c1	inconclusive [activator, single point]	–
COc1ccc(C(=O)Nc2ccc(C(=O)N3CCCC3)cc2)cc1[N+](=O)[O-]	–	inactive: 27.1%
Cc1cc(N2CCN(c3ccc([N+](=O)[O-])c4cccnc34)CC2)c2ccccc2n1	inconclusive [activator, partial curve, poor fit]	–
COc1ccc(/C=C/C(=O)Nc2c(C(=O)O)[nH]c3ccccc23)cc1OC	–	inactive: -0.306%
C/C(=N\NC(=O)C(c1ccccc1)c1ccccc1)c1ccccn1	inconclusive [activator, full curve]	–
Cc1onc(-c2ccccc2)c1C(=O)OCC(=O)Nc1cccc(Cl)c1	inconclusive [activator, partial curve, poor fit]	–
CCN(CC(=O)Nc1ccc2c(c1)OCCO2)S(=O)(=O)c1cccs1	active: 16.4 µM	–
COc1ccc(-c2cc(C)no2)cc1S(=O)(=O)N1CCCN(Cc2ccccc2Cl)C1	–	inactive: 2.02%
COc1ccc(/C=N/NC(=O)c2cccc([N+](=O)[O-])c2)c2ccccc12	inconclusive [activator, partial curve]	–
COc1ccc(N2C(N)=C(C#N)C(c3ccsc3)C3=C2CCCC3=O)c(OC)c1 (configuration not stated)	inconclusive [activator, partial curve, poor fit]	–
CCOc1cc(/C=C(\C(=O)O)c2ccc(S(=O)(=O)N3CCCC3)s2)ccc1OC	inconclusive [activator, partial curve, poor fit]	–
